{
  "source": "PubChem BioAssay AID652106",
  "about": "(National Center for Advancing Translational Sciences (NCATS), 2013)",
  "note": "The whole screen tested about 370,000 compounds, of which about 500 (0.14%) were called active. The shares of active, inactive and inconclusive entries below differ from those in the screen. Calls come from the whole dose curve; as a rule, active = well fitted activation curve with a large enough effect; inconclusive = small, poorly fitted or top-dose-only effect; inactive = no such curve, though single readings can be large or run the other way. Potencies of inconclusive entries are left out as doubtful fits. Potency is the fitted concentration of half-maximal effect; tags give direction and shape of the fitted curve.",
  "data": [
    {"experiment": "qHTS of alpha-syn Inhibitors; note: nearly all actives have a fitted effect of over 65% in size; for growth rescue (activation): % of control where 0% means no effect", "details": "Yeast expressing alpha-synuclein, BacTiter-Glo, 24 h; Potency: growth rescue unless noted; growth rescue (activation): at 46.1 µM (top of the series) unless noted", "procedure,_shortened": "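Galactose-induced alpha-syn yeast (OD600=0.02, raffinose-pregrown) + pinned cpd, 24 hr, 30 deg C; growth by BacTiter-Glo luminescence. Growth restoration scores as activation.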", "values": [
      {"smiles": "CC1=CSC2=NS(=O)(=O)CCN12", "Potency": "inconclusive [activator, single point]"},
      {"smiles": "COc1ccc(NC(=S)N(CCN(C)C)C(C)c2ccncc2)cc1Cl", "note": "(stereo not given)", "Potency": "inconclusive [activator, single point]"},
      {"smiles": "CCC[C@H]1CN(Cc2ccccc2)C(=O)[C@@H]1CC(=O)NC", "Potency": "inconclusive [activator, single point]"},
      {"smiles": "COC(=O)[C@@]12CCCN1[C@H](c1ccc(-c3ccc(OC)cc3)c(OC)c1)[C@@H]1C(=O)N(C)C(=O)[C@@H]12", "growth rescue (activation)": "inactive: -6.2%"},
      {"smiles": "CCOC(=O)c1cc(-c2ccc(C)cc2)n(CCC(=O)NC(C)CC)c1C", "note": "(stereo not given)", "growth rescue (activation)": "inactive: 0.902%"},
      {"smiles": "CCOC(=O)C(C)Sc1nc(-c2ccccc2)nc2ccccc12", "note": "(stereo not given)", "Potency": "inconclusive [activator, partial curve]"},
      {"smiles": "Cc1ccc2cc(C=O)c(N(C)C)nc2c1", "Potency": "inconclusive [activator, single point]"},
      {"smiles": "CCOC(=O)C1CCN(c2ncnc3c2[nH]c2cccc(OC)c23)CC1", "growth rescue (activation)": "inactive: 1.35%"},
      {"smiles": "CN(CCc1ccccn1)C(=O)CN(C)S(=O)(=O)c1ccc2c(c1)c(=O)n(C)c(=O)n2C", "Potency": "inconclusive [activator, single point]"},
      {"smiles": "Cc1cccc(CCNC(=O)c2cccc(NC3=NC4CS(=O)(=O)CC4S3)c2)c1", "note": "(stereo not given)", "Potency": "inconclusive [activator, single point]"},
      {"smiles": "Cn1c(=O)n(CCOc2ccccc2Cl)c2ccccc21", "Potency": "inconclusive [activator, single point]"},
      {"smiles": "CCOC(=O)c1c(-c2ccccc2)csc1NC(=O)CCN1CCOCC1", "growth rescue (activation)": "inactive: 2.89%"},
      {"smiles": "COc1ccc(C2CC(c3cccc(F)c3)=NN2c2ccc(S(N)(=O)=O)cc2)cc1", "note": "(stereo not given)", "Potency": "inconclusive [activator, single point]"},
      {"smiles": "CN1CCN(C(=O)CCCN2C(=O)/C(=C/c3ccc(Cl)cc3)SC2=S)CC1", "Potency": "inconclusive [activator, single point]"},
      {"smiles": "CN(C)c1ccc(CNC(=O)C2(C)Cc3c(-c4cccc(C(F)(F)F)c4)ccnc3O2)cc1", "note": "(stereo not given)", "Potency": "inconclusive [activator, single point]"},
      {"smiles": "Cc1ccc(NS(=O)(=O)c2ccc(-c3csc(C)n3)s2)c(C)c1", "Potency": "inconclusive [activator, partial curve]"},
      {"smiles": "COc1ccc(N2CCN(CCCNC(=O)c3c(C)nn(-c4ccc(F)cc4)c3-n3cccc3)CC2)cc1", "growth rescue (activation)": "inactive: 1.31%"},
      {"smiles": "c1ccc(CCn2nnnc2C(c2cccnc2)N2CCN(c3nc4ccccc4s3)CC2)cc1", "note": "(stereo not given)", "Potency": "inconclusive [activator, single point]"},
      {"smiles": "Cc1ccccc1S(=O)(=O)Cc1ccc(C(=O)N2CCN(c3cccc(C)c3C)CC2)o1", "Potency": "inconclusive [activator, single point]"},
      {"smiles": "C=CCN1N=C(c2ccc(NC(=O)c3ccccc3)cc2)CSC1=O", "Potency": "inconclusive [activator, single point]"},
      {"smiles": "Cc1ccc(NC(=S)NCc2ccc3c(c2)cc(C)n3C)c(C)c1", "Potency": "inconclusive [activator, single point]"},
      {"smiles": "COc1ccc(C(O)c2nc(-c3cc(F)cc(F)c3)cs2)cc1", "note": "(stereo not given)", "Potency": "inconclusive [activator, partial curve]"},
      {"smiles": "CCOc1ccccc1N1CC(C(=O)Nc2nccs2)CC1=O", "note": "(stereo not given)", "Potency": "inconclusive [activator, single point]"},
      {"smiles": "[O-][N+](=NC1C=Cc2ccccc21)C1C=Cc2ccccc21", "note": "(stereo not given)", "Potency": "inconclusive [activator, single point]"},
      {"smiles": "O=C(C[C@H]1C[C@H]2c3cc(NC(=O)CC4CC4)ccc3O[C@H]2[C@H](CO)O1)NCc1ccccc1F", "Potency": "inconclusive [activator, single point]"},
      {"smiles": "COc1ccc(NC(=O)C2Cc3c(-c4ccc(Cl)cc4)ccnc3O2)cc1", "note": "(stereo not given)", "Potency": "inconclusive [activator, single point]"},
      {"smiles": "CCOC(=O)N1CCC(N2C(=O)c3ccccc3C2Nc2ccc(Cl)cn2)CC1", "note": "(stereo not given)", "Potency": "inconclusive [activator, single point]"},
      {"smiles": "Cc1cccnc1C(NC(=O)C1CCN(Cc2ccc(Cl)c(Cl)c2)CC1)c1ccc(Cl)cc1", "note": "(stereo not given)", "Potency": "inconclusive [activator, single point]"},
      {"smiles": "Cc1cccn2c(=O)c3cc(C(=O)NCCCn4ccnc4)n(C)c3nc12", "growth rescue (activation)": "inactive: -3.11%"},
      {"smiles": "Cc1cc(C(=O)OCCN2C(=O)c3ccccc3C2=O)c2ccccc2n1", "Potency": "inconclusive [activator, single point]"},
      {"smiles": "CN(C)c1ccc(/C=C2\\SC(N3CCCCC3)=NC2=O)cc1", "growth rescue (activation)": "inactive: -0.428%"},
      {"smiles": "O=S(=O)(NCCN1CCCC1)c1ccc(Br)cc1", "growth rescue (activation)": "inactive: -6.84%"},
      {"smiles": "COCCn1c(SCC(=O)NC2CCCCC2)nnc1-c1ccco1", "growth rescue (activation)": "inactive: -2.37%"},
      {"smiles": "Cc1ccc(NC(=O)C2(C)CCN2C(=O)C2CCCCC2)cc1C", "note": "(stereo not given)", "Potency": "inconclusive [activator, single point]"},
      {"smiles": "COCCNC(=S)N(CCc1c(C)[nH]c2ccc(F)cc12)Cc1ccco1", "Potency": "inconclusive [activator, single point]"},
      {"smiles": "COCc1cccc(-c2csc(C(O)c3ccc(F)c(F)c3)n2)c1", "note": "(stereo not given)", "Potency": "inconclusive [activator, single point]"},
      {"smiles": "Cc1nc(CS(=O)(=O)c2ccccc2)cc(Sc2ccc(Cl)cc2Cl)n1", "growth rescue (activation)": "inactive: 8.8%"},
      {"smiles": "CCC(=O)OC1(C)C(=O)C=C2C=C(CCCC(=O)OC)OC=C2C1=O", "note": "(stereo not given)", "Potency": "inconclusive [activator, single point]"},
      {"smiles": "O=C(c1cccc(C(F)(F)F)c1)N1CCc2c([nH]c3ccccc23)C1C(F)(F)F", "note": "(stereo not given)", "Potency": "inconclusive [activator, single point]"},
      {"smiles": "CS(=O)(=O)c1ccc(-c2csc(C(O)(c3ccccc3)C(F)(F)F)n2)cc1", "note": "(stereo not given)", "Potency": "inconclusive [activator, single point]"},
      {"smiles": "Cc1ccc(OCC(=O)NNC(=O)CCc2ccccc2)c(Br)c1", "growth rescue (activation)": "inactive: 0.599%"},
      {"smiles": "CCn1c2ccccc2c2cc(/C(C)=N/O)ccc21", "Potency": "inconclusive [activator, partial curve]"},
      {"smiles": "O=C(Oc1c(Cl)cc(Cl)c2cccnc12)c1cccc([N+](=O)[O-])c1", "growth rescue (activation)": "inconclusive: -39.1% [activator]"},
      {"smiles": "Brc1cccc[n+]1CCCCCC[n+]1ccccc1Br", "Potency": "inconclusive [activator, single point]"},
      {"smiles": "CCOc1ccccc1NC(=O)CSc1nc2cc(O)ccc2c(=O)n1-c1ccc(OC)c(OC)c1", "Potency": "inconclusive [activator, single point]"},
      {"smiles": "Cc1c(O)c2c(=O)n(-c3ccccc3)c(-c3ccccc3)cc2oc1=O", "growth rescue (activation)": "inactive: 2%"},
      {"smiles": "CC(C)CC(=O)N1CCN(c2ccc([N+](=O)[O-])cc2Cl)CC1", "Potency": "inconclusive [activator, partial curve]"},
      {"smiles": "Cc1ccc(S(=O)(=O)Nc2cccc3ccccc23)cc1", "Potency": "inconclusive [activator, single point]"},
      {"smiles": "CCN(CC)S(=O)(=O)c1ccc(C(=O)Nc2ccc(OCC(=O)N3CCOCC3)cc2)cc1", "growth rescue (activation)": "inactive: -3.72%"},
      {"smiles": "CC(NCc1ccccc1)C1COc2ccccc2O1", "note": "(stereo not given)", "growth rescue (activation)": "inactive: 0.77%"},
      {"smiles": "Nc1cc(=O)[nH]c2c1CCC2", "growth rescue (activation)": "inactive: 1.06%"},
      {"smiles": "Clc1ccc2nc(CSc3nncn3-c3ccccc3)cn2c1", "Potency": "inconclusive [activator, single point]"},
      {"smiles": "CCOc1ccc(C(=O)N2CCN(CC(=O)N3CCCC3)CC2)cc1OCC", "Potency": "inconclusive [activator, single point]"},
      {"smiles": "O=C(COC(=O)Cc1n[nH]c(=O)c2ccccc12)Nc1ccc(Cl)cc1F", "Potency": "inconclusive [activator, single point]"},
      {"smiles": "C/C(=C\\C(=O)O)C12CC3CC(CC(C3)C1)C2", "Potency": "inconclusive [activator, single point]"},
      {"smiles": "Cc1cccn2c(=O)c(/C=N/O)c(NCc3ccccc3)nc12", "growth rescue (activation)": "inactive: 3.27%"},
      {"smiles": "C=CCc1cccc(/C=N/NC(=O)c2ccccc2Br)c1O", "Potency": "inconclusive [activator, single point]"},
      {"smiles": "O=C1c2ccccc2C(=O)N1CCc1c(-c2ccccc2)[nH]c2ccccc12", "growth rescue (activation)": "inactive: 10.3%"},
      {"smiles": "O=C(NCc1ccccc1)C(c1cc2ccccc2o1)n1c(=O)c(-c2cc3ccccc3[nH]2)nc2ccccc21", "note": "(stereo not given)", "Potency": "inconclusive [activator, partial curve]"},
      {"smiles": "COc1cc(C)c(S(=O)(=O)N2CCCC2)cc1C", "Potency": "active: 14.1 µM"},
      {"smiles": "COc1ccc(C2CC(O)(c3ccccc3)Oc3cc(OC)ccc32)cc1", "note": "(stereo not given)", "Potency": "inconclusive [activator, partial curve]"},
      {"smiles": "Cc1ccc(C(=O)COC(=O)C(C)N2C(=O)C3C4CCC(C4)C3C2=O)cc1C", "note": "(stereo not given)", "growth rescue (activation)": "inactive: 8.22%"},
      {"smiles": "Cc1nc2c(-c3ccccc3)c[nH]n2c(=O)c1Cc1ccccc1", "growth rescue (activation)": "inactive: -4.58%"},
      {"smiles": "CC#CCCCC(=O)Nc1cc(OC)nc(OC)n1", "growth rescue (activation)": "inactive: 4.14%"},
      {"smiles": "CC1(C)CCC2=C(O1)c1ccccc1C(=O)C2=O", "Potency": "inconclusive [activator, single point]"},
      {"smiles": "O=C(NCCc1ccccc1)c1oc2ccccc2c1COc1ccccc1", "Potency": "inconclusive [activator, partial curve]"},
      {"smiles": "CS(=O)(=O)c1nc(S(=O)(=O)c2ccc(Cl)cc2)c(NCCCN2CCCC2=O)s1", "growth rescue (activation)": "inactive: 3.89%"},
      {"smiles": "Cc1ccc(Nc2nc(C)nc(N)c2S(=O)(=O)c2ccccc2)cc1", "growth rescue (activation)": "inactive: 0.912%"},
      {"smiles": "COC(=O)c1ccc2nc(C3CCCCC3)c(Cc3cccc(Cl)c3)n2c1", "Potency": "inconclusive [activator, single point]"},
      {"smiles": "O=C1/C(=C/c2ccccc2[N+](=O)[O-])COc2ccccc21", "Potency": "inconclusive [activator, partial curve]"}
    ]}
  ]
}
